The results in this text go back to PubChem BioAssay (NCI).

The subject of this experiment is NCI-H322M lung. The experiment can be described thus: NCI-60 cell line screen, 48 h.

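Values below derive from 48-hour exposures of cells grown in 96-well plates, with endpoints linearly interpolated between the two concentrations bracketing the appropriate inhibition level. Abbreviation: GI50, concentration required for 50% inhibition of growth. TGI: concentration producing complete growth inhibition.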

Take `Cc1cccc(-c2nc(Nc3ccc(C)c(S(N)(=O)=O)c3)c3ccccc3n2)c1`: the GI50 was 11.4 µM and the TGI came out at 27.7 µM.
